# Test results as given in the supplement of paper PMC8728848.
# The list shows a part of the results.
# B1: LKITALY (Gibberella zeae) (protein)
# chain: MGNFHESSNNIWLEDGHILHAECGNGEGDYVESTLDLDYYIGNDDGSFSWGGENFSGSASNITLDIEGDDNIPVLRAELNPMDGDPVEANVNLSERIGNDCGTLIFLA
# Experiments:
# Test in all cases: glycan array binding signal (z-score within array); higher = stronger binding
# Conditions in all cases: glycan notation: IUPAC condensed, linker removed
# Fuc(a1-2)Gal = molecular target: Fuc(a1-2)Gal
# Outline: (§1)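 Glycan array data were curated from 3228 arrays in the Consortium for Functional Glycomics database and kept only where the protein sequence was available. Glycan names were converted to IUPAC-condensed notation, and columns mapping to the same glycan were averaged. The binding signal is a within-array Z-score, averaged across arrays of the same protein sequence at different concentrations or buffers and across linkers. Negative Z-scores can be read as non-binding.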
# Fuc(a1-2)Gal(b1-3)GalNAc = molecular target: Fuc(a1-2)Gal(b1-3)GalNAc
# Outline: as §1
# [1] = molecular target: Fuc(a1-2)Gal(b1-3)GalNAc(b1-3)Gal
# Outline: as §1
# [2] = molecular target: Fuc(a1-2)Gal(b1-3)GalNAc(b1-3)Gal(a1-4)Gal(b1-4)Glc
# Outline: as §1
# [3] = molecular target: Fuc(a1-2)Gal(b1-3)GalNAc(b1-4)[Neu5Ac(a2-3)]Gal(b1-4)Glc
# Outline: as §1
# Fuc(a1-2)Gal(b1-3)GlcNAc = molecular target: Fuc(a1-2)Gal(b1-3)GlcNAc
# Outline: as §1
# [4] = molecular target: Fuc(a1-2)Gal(b1-3)GlcNAc(b1-3)Gal(b1-4)Glc
# Outline: as §1
# [5] = molecular target: Fuc(a1-2)Gal(b1-3)[Fuc(a1-4)]GlcNAc
# Outline: as §1
# Fuc(a1-2)Gal(b1-4)Glc = molecular target: Fuc(a1-2)Gal(b1-4)Glc
# Outline: as §1
# Fuc(a1-2)Gal(b1-4)GlcNAc = molecular target: Fuc(a1-2)Gal(b1-4)GlcNAc
# Outline: as §1
# [6] = molecular target: Fuc(a1-2)Gal(b1-4)GlcNAc(b1-3)Gal(b1-4)GlcNAc
# Outline: as §1
# [7] = molecular target: Fuc(a1-2)Gal(b1-4)GlcNAc(b1-3)Gal(b1-4)GlcNAc(b1-3)Gal(b1-4)GlcNAc
# Outline: as §1
# [8] = molecular target: Fuc(a1-2)Gal(b1-4)[Fuc(a1-3)]GlcNAc
# Outline: as §1
# [9] = molecular target: Fuc(a1-2)Gal(b1-4)[Fuc(a1-3)]GlcNAc(b1-3)Gal(b1-4)[Fuc(a1-3)]GlcNAc
# Outline: as §1
# [10] = molecular target: Fuc(a1-2)Gal(b1-4)[Fuc(a1-3)]GlcNAc(b1-3)Gal(b1-4)[Fuc(a1-3)]GlcNAc(b1-3)Gal(b1-4)[Fuc(a1-3)]GlcNAc
# Outline: as §1
# Fuc(a1-2)GlcNAc = molecular target: Fuc(a1-2)GlcNAc
# Outline: as §1
# Fuc(a1-2)[Gal(a1-3)]Gal = molecular target: Fuc(a1-2)[Gal(a1-3)]Gal
# Outline: as §1
# [11] = molecular target: Fuc(a1-2)[Gal(a1-3)]Gal(b1-3)GlcNAc
# Outline: as §1
# [12] = molecular target: Fuc(a1-2)[Gal(a1-3)]Gal(b1-4)Glc
# Outline: as §1
# [13] = molecular target: Fuc(a1-2)[Gal(a1-3)]Gal(b1-4)GlcNAc
# Outline: as §1
# [14] = molecular target: Fuc(a1-2)[Gal(a1-3)]Gal(b1-4)[Fuc(a1-3)]GlcNAc
# Outline: as §1
# [15] = molecular target: Fuc(a1-2)[Gal(a1-4)]Gal(b1-4)GlcNAc
# Outline: as §1
# [16] = molecular target: Fuc(a1-2)[GalNAc(a1-3)]Gal
# Outline: as §1
# [17] = molecular target: Fuc(a1-2)[GalNAc(a1-3)]Gal(b1-3)GlcNAc
# Outline: as §1
# [18] = molecular target: Fuc(a1-2)[GalNAc(a1-3)]Gal(b1-4)Glc
# Outline: as §1
# [19] = molecular target: Fuc(a1-2)[GalNAc(a1-3)]Gal(b1-4)GlcNAc
# Outline: as §1
# [20] = molecular target: Fuc(a1-2)[GalNAc(a1-3)]Gal(b1-4)[Fuc(a1-3)]GlcNAc
# Outline: as §1
# [21] = molecular target: Fuc(a1-2)[GalNAc(a1-4)]Gal(b1-4)GlcNAc
# Outline: as §1
# [22] = molecular target: Fuc(a1-2)[GalNAc(b1-3)]Gal
# Outline: as §1
# Fuc(a1-3)GlcNAc = molecular target: Fuc(a1-3)GlcNAc
# Outline: as §1
# [23] = molecular target: Fuc(a1-3)[Gal(b1-4)]GlcNAc
# Outline: as §1
# [24] = molecular target: Fuc(a1-3)[Gal(b1-4)]GlcNAc(b1-4)Gal(b1-4)[Fuc(a1-3)]GlcNAc
# Outline: as §1
# [25] = molecular target: Fuc(a1-3)[Gal(b1-4)]GlcNAc(b1-4)Gal(b1-4)[Fuc(a1-3)]GlcNAc(b1-4)Gal(b1-4)[Fuc(a1-3)]GlcNAc
# Outline: as §1
# [26] = molecular target: Fuc(a1-3)[Gal3S(b1-4)]GlcNAc
# Outline: as §1
# [27] = molecular target: Fuc(a1-3)[GalNAc(b1-4)]GlcNAc
# Outline: as §1
# Fuc(a1-4)GlcNAc = molecular target: Fuc(a1-4)GlcNAc
# Outline: as §1
# Fuc(b1-3)GlcNAc = molecular target: Fuc(b1-3)GlcNAc
# Outline: as §1
# Gal(a1-2)Gal = molecular target: Gal(a1-2)Gal
# Outline: as §1
# Gal(a1-3)Gal = molecular target: Gal(a1-3)Gal
# Outline: as §1
# Gal(a1-3)Gal(b1-3)GlcNAc = molecular target: Gal(a1-3)Gal(b1-3)GlcNAc
# Outline: as §1
# Gal(a1-3)Gal(b1-4)Glc = molecular target: Gal(a1-3)Gal(b1-4)Glc
# Outline: as §1
# Gal(a1-3)Gal(b1-4)GlcNAc = molecular target: Gal(a1-3)Gal(b1-4)GlcNAc
# Outline: as §1
# [28] = molecular target: Gal(a1-3)Gal(b1-4)[Fuc(a1-3)]GlcNAc
# Outline: as §1
# Gal(a1-3)GalNAc = molecular target: Gal(a1-3)GalNAc
# Outline: as §1
# [29] = molecular target: Gal(a1-3)[Gal(a1-4)]Gal(b1-4)GlcNAc
# Outline: as §1
binder,measurement,setting,value
B1,glycan array binding signal (z-score),Fuc(a1-2)Gal,-0.357
same,glycan array binding signal (z-score),Fuc(a1-2)Gal(b1-3)GalNAc,-0.361
same,glycan array binding signal (z-score),[1],-0.37
same,glycan array binding signal (z-score),[2],-0.359
same,glycan array binding signal (z-score),[3],-0.344
same,glycan array binding signal (z-score),Fuc(a1-2)Gal(b1-3)GlcNAc,-0.357
same,glycan array binding signal (z-score),[4],-0.327
same,glycan array binding signal (z-score),[5],-0.337
same,glycan array binding signal (z-score),Fuc(a1-2)Gal(b1-4)Glc,-0.34
same,glycan array binding signal (z-score),Fuc(a1-2)Gal(b1-4)GlcNAc,-0.355
same,glycan array binding signal (z-score),[6],-0.364
same,glycan array binding signal (z-score),[7],-0.342
same,glycan array binding signal (z-score),[8],-0.332
same,glycan array binding signal (z-score),[9],-0.341
same,glycan array binding signal (z-score),[10],-0.36
same,glycan array binding signal (z-score),Fuc(a1-2)GlcNAc,-0.252
same,glycan array binding signal (z-score),Fuc(a1-2)[Gal(a1-3)]Gal,-0.364
same,glycan array binding signal (z-score),[11],-0.347
same,glycan array binding signal (z-score),[12],-0.365
same,glycan array binding signal (z-score),[13],-0.355
same,glycan array binding signal (z-score),[14],-0.356
same,glycan array binding signal (z-score),[15],-0.34
same,glycan array binding signal (z-score),[16],-0.347
same,glycan array binding signal (z-score),[17],-0.357
same,glycan array binding signal (z-score),[18],-0.35
same,glycan array binding signal (z-score),[19],-0.355
same,glycan array binding signal (z-score),[20],-0.35
same,glycan array binding signal (z-score),[21],-0.359
same,glycan array binding signal (z-score),[22],-0.36
same,glycan array binding signal (z-score),Fuc(a1-3)GlcNAc,-0.346
same,glycan array binding signal (z-score),[23],-0.359
same,glycan array binding signal (z-score),[24],-0.354
same,glycan array binding signal (z-score),[25],-0.365
same,glycan array binding signal (z-score),[26],-0.363
same,glycan array binding signal (z-score),[27],-0.363
same,glycan array binding signal (z-score),Fuc(a1-4)GlcNAc,-0.36
same,glycan array binding signal (z-score),Fuc(b1-3)GlcNAc,-0.34
same,glycan array binding signal (z-score),Gal(a1-2)Gal,-0.354
same,glycan array binding signal (z-score),Gal(a1-3)Gal,-0.354
same,glycan array binding signal (z-score),Gal(a1-3)Gal(b1-3)GlcNAc,-0.346
same,glycan array binding signal (z-score),Gal(a1-3)Gal(b1-4)Glc,-0.356
same,glycan array binding signal (z-score),Gal(a1-3)Gal(b1-4)GlcNAc,-0.368
same,glycan array binding signal (z-score),[28],-0.348
same,glycan array binding signal (z-score),Gal(a1-3)GalNAc,-0.357
same,glycan array binding signal (z-score),[29],-0.363
